# Experimental data published in patent US20260138949A1, “NOVEL COMPOUND AS PHOSPHOLIPASE D INHIBITOR AND USE THEREOF” (UIF (UNIVERSITY INDUSTRY FOUNDATION), YONSEI UNIVERSITY, priority 2022, published 2026).
# Tests used:
# phospholipase D1 = experiment: PLD activity in HCT116 cells ([3H]phosphatidylbutanol, TLC); assay type: cell-based, human; conditions: compound 10 μM, cells without the compound = 100%
# Procedure: To evaluate the inhibitory effect of the compounds according to the present invention on phospholipase D1 activity, experiments were conducted as follows.
# For the analysis of PLD activity in cells, human colon cancer cell line (HCT116) was cultured in a 6-well plate at 37° C. for 24 hours, washed twice with phosphate-buffered saline (PBS), and then replaced with medium containing [^3H]myristate and cultured for 24 hours. After the culture, the cells were washed three times with PBS, treated with 1-butanol, and the drug was added to a final concentration of 10 μM. The cells were trypsinized and suspended, and the amount of [^3H]phosphatidylbutanol produced in the cell suspension was measured and evaluated for PLD activity using thin layer chromatography (TLC), and the results are shown in Table 1 below.
# The Remaining activity % at 10 μM in Table 1 is calculated by setting the amount of [^3H]phosphatidylbutanol produced in cells without the compound as 100% and calculating the amount of [^3H]phosphatidylbutanol produced in cells treated with the compound as a percentage. Therefore, the lower the value of Remaining activity %, the higher the PLD inhibitory activity.
# PLD1 [1] = experiment: PLD activity in mouse embryonic fibroblasts from normal, PLD1 knockout and PLD2 knockout mice; assay type: cell-based; conditions: different concentrations; PLD activity decreased first in PLD2 knockout fibroblasts
# [2] = system: normal colon epithelial cells (FHC); experiment: Cell cycle analysis (BrdU/7-AAD flow cytometry) in normal cells; assay type: cell-based; conditions: compound 1-91 2 μM, 48 hours
# Procedure: (§1) To observe cell cycle changes, normal colon epithelial cells (FHC) and human colon cancer cell line DLD1 were treated with compound 1-91 at 2 μM and the positive control 5-FU at 10 μM. After 48 hours, the cells were washed with PBS, harvested, and sequentially treated with bromodeoxyuridine (BrdU) and 7-aminoactinomycin D (7-AAD). The cells were then stained with an anti-BrdU antibody conjugated with fluorescein isothiocyanate (FITC) and analyzed using a flow cytometer.
# [3] = system: human colon cancer cell line DLD1; experiment: Cell cycle analysis (BrdU/7-AAD flow cytometry) in cancer cells; assay type: cell-based; conditions: DLD1, compound 1-91 2 μM, 48 hours
# Procedure: as §1
# [4] = system: normal colon epithelial cells (FHC); experiment: Apoptosis (annexin V-FITC) in normal cells; assay type: cell-based; conditions: compound 1-91 2 μM, 48 hours
# Procedure: (§2) To observe changes in apoptosis, normal colon epithelial cells (FHC) and human colon cancer cell line (DLD1) were treated with compound 1-91 at 2 μM and the positive control 5-FU at 10 μM. After 48 hours, the cells were washed with PBS, harvested, and analyzed for apoptosis using an annexin V-FITC apoptosis detection kit.
# [5] = system: human colon cancer cell line (DLD1); experiment: Apoptosis (annexin V-FITC) in cancer cells; assay type: cell-based; conditions: DLD1, compound 1-91 2 μM, 48 hours
# Procedure: as §2
# [6] = system: AOM/DSS inflammatory colon cancer; experiment: Inflammatory colon cancer animal model (AOM/DSS model); assay type: in vivo, C57BL6/N mice; conditions: oral 10 mg/kg every other day for 45 days
# Procedure: To establish an inflammatory colon cancer animal model, six-week-old C57BL6/N mice were intraperitoneally injected with azoxymethane (AOM) at 10 mg/kg on day 0, followed by administration of 2.5% dextran sulfate sodium (DSS) in drinking water for 5 days and a 15-day recovery period. This DSS cycle was repeated four times. To confirm the effects of the compound in the inflammatory colon cancer animal model, the compound was orally administered at 10 mg/kg every other day for 45 days. After the administration period, the animals were euthanized, and the small intestines were used to prepare paraffin blocks of the intestinal tissue using the Swiss rolling method. The sections were stained with hematoxylin and eosin (H&E).
# [7] = system: MC38 mouse colon cancer cells; experiment: Orthotopic colon cancer animal model (MC38 cells in cecum); assay type: in vivo, C57BL6/N mice; conditions: oral 10 mg/kg for 2 weeks from 7 days after implantation
# Procedure: To establish an orthotopic animal model, MC38 mouse colon cancer cells were implanted into the cecum of six-week-old C57BL6/N mice, as shown on the left side of FIG. 6a. For cell implantation, the mice were anesthetized with intraperitoneal injection of 2,2,2-tribromoethanol (avertin), and the cecum was exposed through laparotomy. MC38 cells prepared at 2×10^5 in 50 μL PBS were implanted. Starting from 7 days after cell implantation, compound 1-91 was orally administered at 10 mg/kg for 2 weeks to confirm the antitumor effects.
# PLD1 [8] = target: T1, PLD1 (Homo sapiens, UniProt Q13393); experiment: PLD activity in HCT116 cells overexpressing PLD1; conditions: 2 μM, HCT116 overexpressing PLD1, compared with VU0155069
# T1 sequence (Q13393 1-1074): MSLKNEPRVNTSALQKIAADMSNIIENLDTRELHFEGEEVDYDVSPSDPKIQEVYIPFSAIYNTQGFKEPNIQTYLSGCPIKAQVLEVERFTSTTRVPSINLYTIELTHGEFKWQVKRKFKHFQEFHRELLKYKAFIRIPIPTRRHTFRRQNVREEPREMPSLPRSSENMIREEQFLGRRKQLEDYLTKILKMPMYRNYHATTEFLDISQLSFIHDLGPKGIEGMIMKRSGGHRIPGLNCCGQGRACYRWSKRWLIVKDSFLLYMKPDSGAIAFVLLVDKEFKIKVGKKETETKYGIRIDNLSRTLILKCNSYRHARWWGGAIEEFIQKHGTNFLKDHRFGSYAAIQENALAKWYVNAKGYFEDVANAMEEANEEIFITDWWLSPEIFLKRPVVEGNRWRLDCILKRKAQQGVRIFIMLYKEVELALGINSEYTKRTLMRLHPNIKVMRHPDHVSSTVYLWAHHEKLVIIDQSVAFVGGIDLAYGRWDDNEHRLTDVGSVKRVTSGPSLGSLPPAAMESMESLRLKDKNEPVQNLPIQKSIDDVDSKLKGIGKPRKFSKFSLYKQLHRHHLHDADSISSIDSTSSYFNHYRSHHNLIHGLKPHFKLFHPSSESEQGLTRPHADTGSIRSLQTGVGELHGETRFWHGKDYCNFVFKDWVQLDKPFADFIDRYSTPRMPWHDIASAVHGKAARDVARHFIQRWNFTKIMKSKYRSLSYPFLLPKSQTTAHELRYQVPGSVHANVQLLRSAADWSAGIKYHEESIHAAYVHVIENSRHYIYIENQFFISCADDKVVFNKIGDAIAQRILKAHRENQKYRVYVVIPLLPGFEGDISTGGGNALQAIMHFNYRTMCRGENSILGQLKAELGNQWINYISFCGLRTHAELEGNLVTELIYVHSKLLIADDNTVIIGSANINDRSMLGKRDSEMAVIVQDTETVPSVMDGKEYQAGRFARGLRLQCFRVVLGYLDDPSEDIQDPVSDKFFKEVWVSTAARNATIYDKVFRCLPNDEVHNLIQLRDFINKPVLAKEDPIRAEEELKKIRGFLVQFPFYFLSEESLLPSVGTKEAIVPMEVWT
# PLD2 = PLD2 (Homo sapiens, UniProt O14939); experiment: PLD activity in HCT116 cells overexpressing PLD2; conditions: 2 μM
# Sequence of PLD2 (O14939 whole entry, species assumed): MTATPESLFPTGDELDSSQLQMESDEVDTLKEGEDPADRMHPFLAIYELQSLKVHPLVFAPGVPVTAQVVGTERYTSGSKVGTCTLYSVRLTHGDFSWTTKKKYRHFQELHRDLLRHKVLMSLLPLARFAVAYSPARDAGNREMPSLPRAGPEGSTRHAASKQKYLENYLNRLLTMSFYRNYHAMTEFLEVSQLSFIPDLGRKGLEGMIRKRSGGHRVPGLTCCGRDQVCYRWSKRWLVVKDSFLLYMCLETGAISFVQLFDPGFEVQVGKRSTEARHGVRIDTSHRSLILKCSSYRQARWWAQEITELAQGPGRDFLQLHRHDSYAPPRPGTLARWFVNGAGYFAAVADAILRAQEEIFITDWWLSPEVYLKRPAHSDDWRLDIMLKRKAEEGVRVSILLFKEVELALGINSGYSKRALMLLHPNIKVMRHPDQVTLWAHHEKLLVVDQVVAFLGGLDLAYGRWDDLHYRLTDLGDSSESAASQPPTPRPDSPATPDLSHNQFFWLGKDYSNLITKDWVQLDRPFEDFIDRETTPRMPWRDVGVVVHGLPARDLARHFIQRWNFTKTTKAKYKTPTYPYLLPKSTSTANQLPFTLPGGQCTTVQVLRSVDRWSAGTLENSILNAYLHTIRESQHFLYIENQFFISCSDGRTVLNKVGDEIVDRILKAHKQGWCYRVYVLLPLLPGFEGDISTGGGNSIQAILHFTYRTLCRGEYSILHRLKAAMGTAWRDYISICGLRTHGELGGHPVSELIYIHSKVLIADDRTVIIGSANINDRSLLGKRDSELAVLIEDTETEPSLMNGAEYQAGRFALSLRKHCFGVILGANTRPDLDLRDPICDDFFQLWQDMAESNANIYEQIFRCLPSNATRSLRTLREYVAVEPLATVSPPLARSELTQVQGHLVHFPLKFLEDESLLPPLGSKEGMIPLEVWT
compound,measurement,setting,value
"O=C(Nc1cc(C(F)(F)F)cc(C(F)(F)F)c1)c1cc2cc(F)ccc2[nH]1 [Example 1-91, N-(3,5-bis(trifluoromethyl)phenyl)-5-fluoro-1H-indole-2-carboxamide]",Remaining activity % at 10 μM,phospholipase D1,20.62%
same,"PLD activity, isoform specificity",PLD1 [1],specifically inhibits PLD1
same,"cell cycle arrest, normal cells",[2],only in cancer cells
same,"cell cycle arrest, cancer cells",[3],specifically arrested the cell cycle at the G0/G1 phase only in cancer cells
same,"apoptosis, normal cells",[4],only in cancer cells
same,"apoptosis, cancer cells",[5],specifically and significantly induced apoptosis only in cancer cells
same,cancer tissues in H&E stained intestinal sections,[6],almost disappeared
same,incidence of tumors,[6],significantly reduced
same,size of tumors,[6],significantly reduced
same,survival,[6],significantly increased
same,survival,[7],significant increase in survival
same,tumor size in the cecum,[7],significantly reduced
same,PLD1 inhibitory effect,PLD1 [8],equal to or greater than that of the positive control VU0155069
same,PLD2 inhibitory effect,PLD2,no PLD2 inhibitory effect
